Consider 48 molecules from PubChem BioAssay AID1963576 (National Center for Advancing Translational Sciences (NCATS), 2024).

Structures are written as SMILES. Out of some 46,000 compounds screened, about 60 (0.1%) were called active. Another 3% or so got no clear call; they are omitted. The call rests on the fitted dose curve; in most records, active means well fitted inhibition curve with a large enough effect; inconclusive means small, poorly fitted or top-dose-only effect; inactive means no such curve, though single readings can be large or run the other way. The list shows a part of the results.

A short description of the assay: Primary qHTS assay for Inhibitors of ovarian cancer metastasis using an organotypic tumor microenvironment (TME) model. Further: nearly all actives have a fitted effect of over 65% in size. Particulars: SKOV3ip1-GFP adhesion/invasion on 3D omental model, fluorescence; series mostly up to 45.8 µM; activity change, negative = inhibition: at the top concentration. The text has this:
PI: Ernst Lengyel MD., Ph.D. Department of Obstetrics and Gynecology, Section of Gynecologic Oncology University of Chicago Medicine, Chicago, Illinois. The tumor microenvironment (TME) is a key determinant of metastatic efficiency. We performed a quantitative high-throughput screen (qHTS) of diverse medicinal chemistry tractable scaffolds (44,420 compounds) and pharmacologically active small molecules (386 compounds) using a layered organotypic, robust assay representing the ovarian cancer metastatic TME. This 3D model contains primary human mesothelial cells, fibroblasts, and extracellular matrix, to which fluorescently labeled ovarian cancer cells are added. Initially, 100 compounds inhibiting ovarian cancer adhesion/invasion to the 3D model in a dose-dependent manner were identified. Of those, eight compounds were confirmed active in five high-grade serous ovarian cancer cell lines and were further validated in secondary in vitro and in vivo biological assays. […] Specifically, NCGC00117362 and PP-121 inhibited ovarian cancer adhesion, invasion, and proliferation, whereas milciclib inhibited ovarian cancer invasion and proliferation. […] To evaluate the clinical potential of NCGC00117362, structure - activity relationship studies were performed. […] The three compounds identified have promise as therapeutics for prevention and treatment of ovarian cancer metastasis.
PROTOCOL TABLE (as described by Inglese J, Shamu CE and Guy RK. 2007) SEQUENCE No. (e.g., 1, 2, 3, etc.); […] (e.g., Cells, Incubation, Reagent, etc.); VALUE; DESCRIPTION. 1; Cells; 4 uL; primary human omental fibroblast, black, clear bottom, low base, 1536-well Aurora assay plate. 2; Incubation; 48 hr; 37C. 3; Cells; 3 uL; 1,200 SKOV3ip1-GFP cells. 4; Compounds; 23nL; acoustic dispenser. 5; Incubation; 2 hr; room temperature. 6; Incubation; 16 hr; 37C. 7; Wash; 5 uL; 1x PBS. 8; Fixing; 5 uL; 4% paraformaldehyde (PFA). 9; Incubation; 15 min; room temperature 10; Wash, 5 uL; 1x PBS. 11; Detection; Fluorescence, excitation filter 488 nm, emission filter 509 nm. NOTES (numbers refer to Sequence numbers above) 1. For the 1,536-well format, 40 primary human omental fibroblasts and 400 mesothelial cells were seeded with 0.02 µg fibronectin and 0.02 µg collagen type I in 4 µL of growth media (2.3 mm2; Supplementary Fig. S1A). 2. Assay plates were incubated for 48 hours at 37 C. 3. After incubation, 1,200 SKOV3ip1-GFP were seeded in 3 µL of serum-free media (growth media minus FBS) on top of primary human omental cells. 4. Compounds or controls were added to each well immediately after the addition of the cancer cells. Compounds were screened in four doses (0.36-46 µmol/L), and the plates contained the positive control (Tomatine) in eight doses (0.035-75 µmol/L) and DMSO (equal volume controls) 5 - 6. The plates were incubated at room temperature for 2 hours and then at 37 degrees C for 16 hours. 7 - 10. Following incubation, the media were aspirated and each well washed with PBS (5 µL) and then fixed with 4% paraformaldehyde (PFA; 5 µL). After 15 minutes, the PFA solution was aspirated, PBS (5 µL) was added. 11. The number of GFP-labeled cells analyzed using a fluorescent cytometer TTP LabTech Acumen eX3 using 488 nm excitation filter and 509 nm emission filter. Data was normalized to the DMSO treated for negative and Tomatine treated wells for positive control. REFERENCES: Inglese J, Shamu CE and Guy RK, Reporting data from high throughput screening of small molecule libraries, Nature Chemical Biology, 2007, 3(8): 438-441. doi.org/10.1038/nchembio0807-438. Yasgar A, Shinn P, Jadhav A, Auld DS, Michael S, Zheng W, Austin CP, Inglese J and Simeonov A, Compound Management for Quantitative High-Throughput Screening. J. Assoc. Lab. Auto., 2008, 13: 79-89. doi: 10.1016/j.jala.2007.12.004.
For orientation: Quantitative high-throughput screening tests each substance at several concentrations.
With `O=C(Nc1ccc(OC(F)(F)F)cc1)C1CCN(S(=O)(=O)c2cccs2)CC1`, the “activity change, negative = inhibition” value was inactive: -32.4%.
Same read-out and setting: then `CCn1cc(S(=O)(=O)c2ccccc2)c(=O)c2cc(F)c(N3CCN(c4ccccc4)CC3)cc21`, with inactive: 4.34%; and `CCN(CC)C(=O)c1sc2c(c1C)c(=O)n(-c1ccc(OC)cc1OC)c(=O)n2CC(=O)c1ccc(Cl)cc1`, with inactive: -5.92%.
In the case of `Cn1c2ccccc2c2cnn(CC(=O)Nc3ccccc3C(F)(F)F)c(=O)c21`, the “activity change, negative = inhibition” value was inactive: 2.11%.
Same read-out and setting: the result for `Cc1ccccc1-c1noc(-c2ccc(N3CCOCC3)c([N+](=O)[O-])c2)n1` reads inactive: -4.14%.
Consider `Cc1ccc(-n2c(=O)c3c(cnn3C)n(Cc3ccccc3F)c2=O)cc1`, for which the “activity change, negative = inhibition” value is inactive: 1.88%.
With `O=C(NCCc1nc2ccccc2n1Cc1ccc(Cl)cc1Cl)c1ccco1`, the “activity change, negative = inhibition” value is inactive: -1.79%.
As for `CCn1ccc2c(OCC(=O)NCc3ccc(F)cc3)cccc2c1=O`, the “activity change, negative = inhibition” value is inactive: 11.1%.
Take `Cc1ccc(-c2noc(-c3ccccc3NC(=O)C3CC(=O)N(c4ccccc4C)C3)n2)cc1` (stereo not drawn): the “activity change, negative = inhibition” value is inactive: -2.42%.
Still for that read-out and setting: then `Cc1nn(-c2ccc(N3CCCC3)nn2)c(C)c1CCC(=O)Nc1ccc(F)c(Cl)c1`, with inactive: -1.07%; and `CCc1nn(CC(=O)Nc2ccc(N(CC)CC)cc2C)c(=O)c2cc3sccc3n12`, with inactive: 5.81%; and `CC(C)Sc1ncc(Cl)c(C(=O)N(Cc2ccc(N(C)C)cc2)C2CCS(=O)(=O)C2)n1` (stereo not drawn), with inactive: -1.25%.
With `N#Cc1ccc(C(=O)Nc2ccc3c(c2)N(C2CCCC2)C(=O)c2ccccc2S3)cc1`, the “activity change, negative = inhibition” value was inactive: 12.6%.
In the case of `Oc1cc(-c2nc(-c3ccccc3)[nH]c2-c2ccncc2)ccc1Cl`, the “activity change, negative = inhibition” value was inactive: -11.5%.
Same read-out and setting: then `CCOc1ccc(C2C(C(=O)Nc3ccccc3)=C(C)Nc3nc(SCc4cc(C)ccc4C)nn32)cc1` (stereo not drawn), with inactive: 9.54%; and `Cc1cc(C)c2nc(N(Cc3cccnc3)C(=O)c3cccs3)sc2c1`, with inactive: -4.96%; and `CC(C)Cn1c(=O)c2ccccc2n2c(CCC(=O)NC(C)c3ccccc3)nnc12` (stereo not drawn), with inactive: -9.9%.
For `COc1ccc(CC(=O)NCCc2csc3nc(-c4ccccc4F)nn23)cc1`, the “activity change, negative = inhibition” value was inactive: 1.97%.
With `Cc1ccc(NC(=O)CN(C)S(=O)(=O)c2ccc3[nH]c4c(c3c2)CCCC4)c(Cl)c1`, the “activity change, negative = inhibition” value was inactive: -1.18%.
On the same count and under the same terms, then `COc1ccc(N2CCN(c3oc(-c4ccc(COc5cccc(C)c5)o4)nc3C#N)CC2)cc1`, with inactive: 6.41%.
Take `Cc1oc(-c2ccccc2F)nc1CS(=O)(=O)CC(=O)NCCc1ccc(Cl)cc1`: the molecule was classed as inactive.
For `COc1cc(-c2nc(Cn3nnc(C(=O)Nc4ccc(C)cc4C)c3C)c(C)o2)cc(OC)c1OC`, the “activity change, negative = inhibition” value was inactive: 18%.
As for `CCCN(C(=O)CCc1nc(-c2ccc(OC)cc2)no1)c1ccccc1F`, the “activity change, negative = inhibition” value is inactive: 1.45%.
On the same count and under the same terms, the result for `CSc1ncc(C(=O)N2CCN(c3cc(Cl)ccc3C)CC2)c(C)n1` reads inactive: 3.88%.
As to `COc1cccc2cc(-c3nnc(Nc4c(F)cccc4F)s3)c(=O)oc12`, the “activity change, negative = inhibition” value is inactive: -0.64%.
For `CCC(=O)c1cc2c(cc1NC(=O)c1ccccc1F)OCCO2`, the “activity change, negative = inhibition” value is inactive: -29.9%.
On to `CCN(CC)c1sc(S(=O)(=O)c2ccccc2)nc1S(=O)(=O)c1ccc(C)cc1`, for which the “activity change, negative = inhibition” value was inactive: 3.25%.
On the same count and under the same terms, then `CC1=C(C(=O)Nc2ccc(C)cc2Cl)C2(CCCCCC2)OC1=O`, with inactive: 0.624%.
With `COc1ccc([C@@H]2CNC(=O)C2)cc1OC1CCCC1`, the molecule was called inactive.
Take `CCOc1ccc(CCNC(=O)c2ccc(-n3c(C)cc4c3CCC(C)C4)cc2)cc1OCC` (stereo not drawn): the “activity change, negative = inhibition” value was inactive: -3.7%.
Regarding `Cc1ccc(C)c2sc(N3CCN(C(=O)C(C)(C)C)CC3)nc12`, the “activity change, negative = inhibition” value is inactive: 10.2%.
Turning to `CCN(CCCNC(=O)c1cc2c(Cl)nc3ccccc3c2s1)Cc1ccccc1`, the molecule was classed as inactive.
The same measure, in the same setting: then `COc1ccccc1C(=O)Nc1ccc(OCc2cc(=O)n3ccsc3n2)cc1`, with “inactive”.
Consider `O=C(CSc1nc2c([nH]c3ccccc32)c(=O)n1-c1ccccc1)Nc1ccc2c(c1)OCCO2`, for which the “activity change, negative = inhibition” value was inactive: 5.34%.
As to `COc1ccc(NC(=O)Cn2ncc3c2-c2ccccc2OC3)cc1Cl`, the “activity change, negative = inhibition” value was inactive: 5.73%.
On the same count and under the same terms, the result for `Cc1cccc(NC(=O)c2sc3nc(N4CCOCC4)c4c(c3c2N)CC(C)(C)OC4)c1` reads inactive: -5.73%; that for `CC(=O)NCCn1c(SCC(=O)Nc2ccc(C)cc2)nc2ccccc2c1=O`, inactive: -5.38%; that for `CC(C)(C)c1ccc(-c2nc(SCC(=O)Nc3ccc(Cl)cc3)[nH]c(=O)c2C#N)cc1`, inactive: 2.55%.
For `CCc1ccc(S(=O)(=O)N(C(=O)Oc2ccccc2)c2ccc3oc(C)c(C(=O)OC)c3c2)cc1`, the outcome was inactive.
For the molecule `CCCCNC(=O)C1CCC(CNS(=O)(=O)c2ccc(Cl)cc2)CC1` (stereo not drawn), the “activity change, negative = inhibition” value is inactive: -5.96%.
On the same count and under the same terms, then `CNC1CCC(N(Cc2cccc(-c3ccncc3)c2)C(=O)c2sc3ccccc3c2Cl)CC1` (stereo not drawn), with inactive: -22.3%.
On to `NC(=O)c1ccc2nc(-c3ccc(Oc4ccc(Cl)cc4)cc3)[nH]c2c1`, for which the “activity change, negative = inhibition” value was inactive: 19.6%.
For the molecule `CCCCN(CCCC)C(=O)C1CCN(S(=O)(=O)c2cccc3nsnc23)CC1`, the outcome was inactive.
Consider `Cc1ccc(Cl)cc1-n1ncc2c(N3CCCCCC3)ncnc21`, for which the “activity change, negative = inhibition” value was inactive: 3.95%.
`Cc1ccccc1CN1C(=O)c2ccccc2Sc2ccc(C(=O)NC3CCCC3)cc21`: the “activity change, negative = inhibition” value is inactive: -0.474%.
For the molecule `COc1ccc(OC)c(/C=C/C(=O)Nc2ccc(C(=O)OCCC(C)C)cc2)c1`, the “activity change, negative = inhibition” value is inactive: 0.239%.
`O=S(=O)(NCc1ccc(Cl)cc1)c1ccc(-c2cnc(C3CC3)o2)cc1`: the “activity change, negative = inhibition” value was inactive: 25.4%.
As to `CCN(Cc1ccccc1)c1ncnc2c1nnn2C`, the “activity change, negative = inhibition” value was inactive: 2.57%.
